According to PubChem BioAssay (NCATS):
Inconclusive results, whose numbers are uncertain, are shown with a selection of clear calls. A call without a number means that no potency is given here. Where the call is inconclusive, the potency comes from a doubtful curve fit. The source made the active and inactive calls. The call rests on the fitted dose curve; in most records, active means well fitted cell-killing curve with a large enough effect; inconclusive means small, poorly fitted or top-dose-only effect; inactive means flat fitted curve, though single readings scatter.
Potency means the concentration at half of the fitted maximal effect; tags describe the fitted curve by direction and shape.

Experiment: Cell Viability - LYMP2-014 (AID 983);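 further: cells exposed to compound for 24 h at 37 °C; nearly all actives have a fitted effect of over 50% in size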
Details: LYMP2-014 lymphoblastoid cells, viability qHTS; series mostly up to 92.2 µM
Description: NIH Chemical Genomics Center [NCGC]
NIH Molecular Libraries Screening Centers Network [MLSCN]
National Institutes of Environmental Health Sciences [NIEHS]
National Toxicology Program [NTP]
We have developed a 1536-well cell-based assay for quantitative high throughput screening (qHTS) against a number of cell lines to determine in vitro cytotoxicity of small molecules. This particular assay uses a human lymphoblastoid cell line (LYMP2-014) purchased from Coriell Institute for Medical Research.
NCGC Assay Protocol Summary:
The CellTiter-Glo luminescent cell viability assay (Promega) is a homogeneous method to measure the number of viable cells in culture. The end point readout of this assay is based on quantitation of intracellular ATP, an indicator of metabolic activity, using the luciferase reaction. Luciferase catalyzes the oxidation of beetle Luciferin to oxyluciferin and light in the presence of ATP. The luminescent signal is proportional to amount of ATP present.
Using the CellTiter-Glo luminescent cell viability assay, the amount of cellular ATP was measured in the lymphoblastoid cell line with complete culture medium following compound treatment for 24 hours. The assay was performed in opaque white Kalypsys 1536-well plates. In the screen, tetraoctylammonium bromide was used as positive control. Library compounds were measured for their ability to cause acute toxicity in the cell line, as reflected by a decrease in intracellular ATP levels, in a concentration-dependent manner. […] AC50 values were determined from concentration-response data modeled with the standard Hill equation.
qHTS protocol for CellTiter Glo lymphoblastoid cellular assay
[Step] [Parameter] [Value] [Description]
1. Reagent; 5 uL; 2500 lymphoblastoid cells/well
2. Time; 5 hr; 37 C incubation
4. Controls; 23 nL; Tetraoctylammonium bromide 6.4pM to 92 uM
5. Time; 24 hr; 37 C incubation
6. Reagent; 5 uL; CellTiter Glo reagent
7. Time; 30 min; Room Temperature
8. Detection; Luminescence; Viewlux plate reader
Keywords: cell viability, cytotoxicity, lymphoblastoid cell line, luminescence, NTPHTS, NTPHTS_NCGC, NIEHS, DSSTox, MLSMR, MLSCN, NIH Roadmap, qHTS, NCGC
With `Nc1ccc(O)c([N+](=O)[O-])c1` the Potency was “inactive”. For `Nc1ccc(O)c(C(=O)O)c1`, the Potency was “inactive”. In the case of `O=c1[nH]cc(F)c(=O)[nH]1`, the Potency is reported as “inactive”. With `O=C1CN(/N=C/c2ccc([N+](=O)[O-])o2)C(=O)N1` the Potency was inconclusive: 50.1 µM [cytotoxic, single point]. For `c1ccc2[nH]c(-c3cscn3)nc2c1`, the Potency was “inactive”. With `CC(C)(C)c1ccc(O)c(O)c1` the Potency was inconclusive: 50.1 µM [cytotoxic, partial curve]. In the case of `CN(C)c1ccc2nc3ccc(=[N+](C)C)cc-3sc2c1`, the Potency is reported as active: 3.98 µM. With `N=C1N=C(N)c2cc3ccccc3cc21` the Potency was active: 39.8 µM. In the case of `NC(=O)N/N=C/c1ccc([N+](=O)[O-])o1`, the Potency is reported as inconclusive: 79.4 µM [cytotoxic, single point]. For `c1cnc2c(c1)ccc1cccnc12`, the Potency was inconclusive: 15.8 µM [cytotoxic, full curve]. With `O=c1c(-c2ccc(O)cc2)coc2cc(O)cc(O)c12` the Potency was “inactive”. For `CC(C)NCC(O)c1ccc(O)c(O)c1` (centres undefined), the Potency was “inactive”. With `CN(C)c1ccc(C(=C2C=CC(=[N+](C)C)C=C2)c2ccccc2)cc1` the Potency was active: 0.251 µM. With `Nc1ccccc1N` the Potency was “inactive”.
